Our source for the DAPI nuclei signal change (viability), lower = more cytotoxic values is PubChem BioAssay AID651582 (Sanford-Burnham Center for Chemical Genomics, 2012).

The other results are listed elsewhere or left out. These are further read-outs of the screen, such as a control signal, another cell line or another target. No call is given for them. The list favours compounds with an active or inconclusive main result.

This assay can be described thus: inhibitors of triacylglycerol accumulation, primary screen, cell-based, uHTS, fluorescence, H9c2 (AID 651582). The conditions noted are these: H9c2 cells, Nile Red lipid (TAG) fluorescence; measured here:; at 12.5 µM; cells loaded with 200 µM oleic acid.
Take `CCN1CCN(Cc2ccc(NC(=O)c3cc(NC(=O)c4cc5cccc(OC)c5o4)cc(OC)c3)cc2C(F)(F)F)CC1`: the DAPI nuclei signal change (viability), lower = more cytotoxic was determined as 19.8%.
Turning to `Cn1nnc2c[n+](CC(=O)c3ccc(Cl)cc3)cc(Br)c21`, the DAPI nuclei signal change (viability), lower = more cytotoxic was -28.6%.
As for `CC(C)NS(=O)(=O)c1ccc(CCC(=O)Nc2cc(Cl)ccc2Oc2ccccc2)cc1`, the figure is -9.84%; as for `CCN(CC)CCOC(=O)c1ccc(N/C=C(/C#N)c2nc(-c3ccc(OC)c(OC)c3)cs2)cc1`, 18.1%.
For `COc1ccc(COc2cc(-c3cccc(OC)c3)nc3ccc(NC(=O)c4ccc(OC)cc4)cc23)cc1` the value was -20%; for `Cc1nn(-c2cccc(Cl)c2)c2nc(-c3ccncc3)cc(C(=O)N3CCOCC3)c12`, -4.57%.
For `CCCCN(C)C(=O)c1ccc(Nc2nc(C(N)Cc3ccc(C(F)(F)F)cc3)cs2)nc1` (stereo not given) the value was -1.18%; for `COc1ccc(CC(N)c2csc(NC(=O)Nc3ccccc3C(C)C)n2)cc1` (stereo not given), -23.6%; for `Cc1cc(C)c(NC(=O)CSc2nc3ccc(NC(=O)CSc4nnnn4Cc4ccccc4)cc3s2)c(C)c1`, 6.33%.
As for `O=C(Nc1ccc(-c2csc(Nc3ccc(Cl)cc3)n2)cc1)c1cc([N+](=O)[O-])cc(C(F)(F)F)c1`, the DAPI nuclei signal change (viability), lower = more cytotoxic amounted to 7.77%.
For `COc1ccc(CCNc2c3ccccc3nc3ccccc23)cc1OC` the value was -31.9%; for `O=C(N/N=C(\c1ccccc1)c1ccccn1)c1cccc([N+](=O)[O-])c1`, -27.3%.
Take `COc1ccc(OC)c(NS(=O)(=O)c2ccc(N3CCCC3=O)cc2)c1`: the DAPI nuclei signal change (viability), lower = more cytotoxic is -5.5%.
As for `CCOC(=O)CCS(=O)(=O)c1nc(-c2ccccc2)cc(C(F)(F)F)n1`, the DAPI nuclei signal change (viability), lower = more cytotoxic is -43.9%.
For `Cc1cc(C)c2nc(NC(=O)c3ccc([N+](=O)[O-])o3)sc2c1` the value was -30.9%; for `O=C1C(Cl)=C(NCc2ccco2)C(=O)c2ccccc21`, -47.2%; for `O=C(NCc1nnnn1-c1ccc(F)cc1)c1ccc([N+](=O)[O-])o1`, -49.1%.
In the case of `COc1ccc(-c2cc(NC=O)c3ncc(-c4ccc(OC)c(OC)c4)n3c2)cc1`, the DAPI nuclei signal change (viability), lower = more cytotoxic was -44.7%.
In the case of `C=C1C(=O)C23C(O)C1CCC2C12CCCC(C)(COC(C)=O)C1C(O)C3(O)OC2` (stereo not given), the DAPI nuclei signal change (viability), lower = more cytotoxic is -44.1%.
As for `CC(C)(C)NC(=O)C(c1ccc(-c2ccccc2)cc1)N(C[C@H]1CC[C@@H]([C@@H]2CC[C@H](CO)O2)O1)C(=O)c1ccc2ccccc2c1` (stereo not given in full), the figure is -0.194%; as for `CC(C)CCNCC(O)CON=C1c2ccccc2-c2ccccc21` (stereo not given), -17.4%.
Take `C[C@@H]1CN([C@@H](C)CO)C(=O)c2cccc(NC(=O)Nc3ccc(F)cc3)c2O[C@@H]1CN(C)Cc1ccc(Oc2ccccc2)cc1`: the DAPI nuclei signal change (viability), lower = more cytotoxic is 9.25%.
For `CCOC(=O)Oc1c(OC)cc(C(=O)O[C@@H]2C[C@@H]3CN4CCc5c([nH]c6cc(OC)ccc56)[C@H]4C[C@@H]3[C@H](C(=O)OC)[C@H]2OC)cc1OC` the value was -3.72%.
As for `Nc1nc(CCl)nc(Nc2cccc3ccccc23)n1`, the figure is -46.9%.
As for `COc1cccc(-c2sc3cc(OC)c(OC)cc3c2-c2ccc(OCCN3CCCCC3)cc2)c1`, the figure is -34.4%.
Consider `O=C(N1CCN(c2ccccn2)CC1)N1c2ccccc2Sc2ccccc21`, for which the DAPI nuclei signal change (viability), lower = more cytotoxic is -24.2%.
As to `Cc1nc2c(ccc3nc(NC(=O)Cc4cccc5ccccc45)sc32)s1`, the DAPI nuclei signal change (viability), lower = more cytotoxic is -2.46%.
For `COC(=O)[C@]1(Cc2ccccc2)N[C@H](c2ccc(-c3cccc(Cl)c3)c(OC)c2)[C@@H]2C(=O)N(C)C(=O)[C@@H]21` the value was -18.5%.
As for `O=C(Nc1nc2ccc(C(=O)N3CCCCC3)cc2s1)C1CCCCC1`, the figure is -26.2%.
On to `O=C(Nc1nc(-c2ccccn2)cs1)c1ccc(Cl)s1`, for which the DAPI nuclei signal change (viability), lower = more cytotoxic is -16.1%.
As to `Cc1ccc(-c2csc(NC(=O)CSc3nc4ccccc4c(=O)n3CCCN(C)C)n2)cc1`, the DAPI nuclei signal change (viability), lower = more cytotoxic stood at 20.2%.
As for `CC(=O)Nc1sc2c(c1-c1nc3ccccc3s1)CN(C(C)C)CC2`, the figure is -22.1%; as for `O=C1C(=O)N(CNc2ccccn2)c2ccccc21`, -26.7%; as for `O=C1OCCN1C(=O)[C@H]1[C@H](c2ccc(Cl)cc2)C(c2ccc(F)cc2)=NN1c1ccc(Br)cc1`, -14%.
For `COC(=O)c1cc(C(=O)N2CCN(c3cccc(Cl)c3)CC2)cc([N+](=O)[O-])c1` the value was -40.9%.
As for `Cc1nc(N/N=C/c2cccc(F)c2)cc(N2CCOCC2)n1`, the figure is -41.9%; as for `NC(=S)NN=Cc1nccc2c(C(F)(F)C(F)(F)C(F)(F)F)cccc12`, -32.4%; as for `N#CC1C=Cc2c(ccc3ccccc23)N1C(=O)c1ccccc1` (stereo not given), -34.4%.
For the molecule `CCCC(C(=O)NC(C)(C)C)N(Cc1ccccc1)C(=O)c1snc(C(N)=O)c1N` (stereo not given), the DAPI nuclei signal change (viability), lower = more cytotoxic was -37.8%.
As for `COc1cc(C(=O)NC2CCN(C)CC2)ccc1Nc1ncc2c(n1)N(Cc1ccccc1)CCC(=O)N2C`, the figure is -22.3%; as for `O=C(Nc1ccc2[nH]c(=O)[nH]c2c1)c1ccc([N+](=O)[O-])o1`, -44.6%.
Take `COc1ccc(C#Cc2ccc3c(c2)O[C@@H](CN(C)C(=O)Nc2cccc(OC)c2)[C@H](C)CN([C@@H](C)CO)S3(=O)=O)cc1`: the DAPI nuclei signal change (viability), lower = more cytotoxic is -16.3%.
For `O=C1c2ccc3c4c(ccc(c24)C(=O)N1CCCCO)C(=O)N(CCCCO)C3=O` the value was -25%; for `Cc1onc(-c2ccc(Cl)cc2Cl)c1-c1csc(N/N=C/c2ccccc2Cl)n1`, 4.16%; for `COc1ccc(-c2nc(NC(=O)C3CCN(c4nc5ccccc5o4)CC3)sc2C)cc1`, -1.43%.
For the molecule `COc1ccc(-n2nc(C(=O)Nc3ccc4c(c3)OCO4)c3c4ccccc4n(C)c3c2=O)cc1`, the DAPI nuclei signal change (viability), lower = more cytotoxic came to 8.77%.
For `O=C(NCCC1=CCCCC1)C1CCN(C(=O)Nc2ccccc2)CC1` the value was -5.06%.
As for `COc1cc(C#Cc2c(-c3cncn3C)n(C)c3ccc(-c4cnc(N5CCOCC5)nc4)cc23)cc(OC)c1`, the figure is 92.7%.
`CC(C)(C)OC(=O)N(CCc1ccccc1)Cc1ccc(OCc2cccc(NC(=O)/C=C/c3ccccc3)c2)cc1`: the DAPI nuclei signal change (viability), lower = more cytotoxic stood at 8.59%.
For the molecule `O=C(Nc1cccc(Cl)c1)c1nc[nH]c1C(=O)NCCCCNC(=O)c1[nH]cnc1C(=O)Nc1cccc(Cl)c1`, the DAPI nuclei signal change (viability), lower = more cytotoxic came to 1.76%.
For `CCC(=NCCc1c(C)[nH]c2ccc(OC(F)(F)F)cc12)C1=C(O)CC(c2ccccc2)CC1=O` (stereo not given) the value was -32.3%.
Take `COc1ccccc1Nc1nnc(SCC(=O)Nc2nc(-c3ccc(F)cc3)cs2)s1`: the DAPI nuclei signal change (viability), lower = more cytotoxic is -1.08%.
As for `COc1ccc(-c2ccc3[nH]c4c(c3c2)CCN2C(=O)[C@@H]([C@H](C)O)[C@@H](N(C)C(=O)Nc3cc(Cl)cc(Cl)c3)C[C@@H]42)cc1`, the figure is -14.3%.
As for `CCC(=O)Nc1ccc(-c2nnc(-c3ccccc3)o2)cc1`, the figure is -1.45%; as for `COC(=O)Nc1nc2ccc(SC(C)C)cc2[nH]1`, -31.1%; as for `C[C@@H]1CN([C@H](C)CO)C(=O)c2cccc(NC(=O)Nc3ccc(C(F)(F)F)cc3)c2O[C@H]1CN(C)S(=O)(=O)c1cccs1`, -10.1%.
On to `O=C(Cc1coc2ccc3ccccc3c12)Nc1nccs1`, for which the DAPI nuclei signal change (viability), lower = more cytotoxic was -3.21%.
For `O=C(CSc1nc(N2CCCCC2)nc(N2CCCCC2)n1)N1CCN(c2ccccc2)CC1` the value was -6.41%; for `CC[C@H](C)[C@H](NC(N)=O)C(=O)NCCc1ccc(OC)c(OC)c1`, -39.9%; for `COc1ccc(-c2cc3nc(-c4ccccc4)cc(N4CCN(C(=O)c5ccccc5)CC4)n3n2)cc1`, 88.5%.
In the case of `Cc1cccc(N2CCN(C(=O)c3c(-c4ccccc4Cl)noc3C)CC2)c1C`, the DAPI nuclei signal change (viability), lower = more cytotoxic is -47.2%.
For `CCOC(=O)c1sc(NC(=O)c2sccc2C)cc1C` the value was -8.06%.
For `C=CCc1c(C)nc(-c2ccccc2)nc1N/N=C/c1ccncc1` the value was -26.6%; for `CN(C)CC/C=C1\c2ccc(F)cc2Sc2cc(F)c(Cl)cc21`, -35.5%.
Take `CCC(C)(C)c1ccc(Oc2ccc(N)cc2)cc1`: the DAPI nuclei signal change (viability), lower = more cytotoxic was -37.6%.
As for `O=C(CCl)N(c1ccccc1)c1c[nH]c2ccccc12`, the DAPI nuclei signal change (viability), lower = more cytotoxic was -36.9%.
For `Cc1cccc(N=Nc2ccc(O)c3ncccc23)c1` the value was -25%; for `CC(C)C(=O)NC(c1ccco1)c1ccc2cccnc2c1O` (stereo not given), -46%; for `COc1ccccc1-c1nnc(Nc2nc3c(OC)cccc3s2)o1`, -14%.
Regarding `CCOC(=O)c1c(C)[nH]c(C(=O)OCC(=O)NCCc2ccc(OCC)c(OCC)c2)c1C`, the DAPI nuclei signal change (viability), lower = more cytotoxic is -18.9%.
Consider `O=C(NCc1ccc2c(c1)OCO2)c1cc(-c2ccccn2)nc2ccccc12`, for which the DAPI nuclei signal change (viability), lower = more cytotoxic is -20.4%.
As for `CN(C)CC/C=C1\c2ccccc2Sc2cc(F)c(Cl)cc21`, the figure is -28.8%.
As for `COC(=O)C1=C(C)N(Cc2ccccc2)C(=NCc2cc(OC)c(OC)c(OC)c2)N[C@H]1c1ccc(Br)cc1`, the figure is -2.8%.
As for `CCN(CC)CCn1c2c(c(SCC(=O)Nc3ccc(C)c(F)c3)nc1=O)CCCC2`, the figure is -30.9%; as for `COc1cc(NC(=O)c2cc3cccc(OC)c3o2)cc(C(=O)Nc2cccc(C(F)(F)F)c2)c1`, 15.2%; as for `C=CC[C@@H](CC(=O)N(CCO)Cc1ccccc1)C(=O)N[C@@H](COC(=O)[C@@H](CC=C)Cc1ccc(F)cc1)Cc1ccccc1`, 3.33%.
For `O=C(CCl)Nc1ccc(-c2ccccc2)cc1`, the DAPI nuclei signal change (viability), lower = more cytotoxic is -27.8%.
For `C=CCC[C@@H](Cc1ccc(F)cc1)C(=O)OC[C@@H](Cc1c[nH]c2ccccc12)NC(=O)[C@H](CC=C)CC(=O)N(CCO)Cc1ccccc1` the value was -0.326%; for `O=[N+]([O-])c1ccc(-c2nc(C(Cl)Cl)c3ccccc3n2)cc1`, -44.5%; for `OCCCNc1cc(-c2ccnc(Nc3cccc(Cl)c3)n2)ccn1`, -34.2%.
As for `CN(C)CCOc1ccc(-c2c(-c3ccccc3)sc3ccccc23)cc1`, the DAPI nuclei signal change (viability), lower = more cytotoxic was -29.8%.
With `Cc1nc(C(=O)Nc2ccccc2Cl)cc2c1[nH]c1ccccc12`, the DAPI nuclei signal change (viability), lower = more cytotoxic came to 0.373%.
For the molecule `CN1CCN(c2cc3c(c4c2[nH]c2ccccc24)C(=O)CC(C)(C)C3)CC1`, the DAPI nuclei signal change (viability), lower = more cytotoxic turned out to be 30.8%.
For `COc1ccccc1NC(=O)N1CCC(c2nc3cc(C)c(C)cc3[nH]2)CC1` the value was -24.1%; for `COc1ccccc1[C@H]1C(c2cccc(C)c2)=NN(c2ccccc2)[C@@H]1CO`, 98%; for `O=C1/C(=N\S(=O)(=O)c2cccs2)C([n+]2ccccc2)=C([O-])c2ccccc21`, -32.3%.
For the molecule `Cc1cccc(Oc2nc(-c3ccccn3)nc3ccccc23)c1`, the DAPI nuclei signal change (viability), lower = more cytotoxic was -31.3%.
Take `Cc1cccc(NC(=O)c2nc[nH]c2C(=O)NCCCCNC(=O)c2[nH]cnc2C(=O)Nc2cccc(C)c2)c1`: the DAPI nuclei signal change (viability), lower = more cytotoxic is -23.2%.
For `O=S(=O)(c1ccc(Cl)cc1)N1CCN(Cc2ccc(O)c3ncccc23)CC1` the value was -19.6%; for `CCOC(=O)[C@@H]1[C@H]2COc3ccc(Br)cc3[C@@H]2N2C(=O)N(c3ccc(C(F)(F)F)cc3)C(=O)[C@@]12C`, 2.95%.
